Reference: the supplement of paper PMC9151546
Single values are uncertain, as repeats are few or missing.

Assays:
CHO-K1 [1] = experiment: hypodiploid nuclei frequency (% of nucleated events); higher = more hypodiploid events (aneugenic)
Protocol: (§1)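 Flow-cytometric in vitro micronucleus assay (Litron MicroFlow) in CHO-K1 cells in 96-well plates, 19 concentrations (4.5-200 µM, n=1 per concentration). Without S9, cells were exposed for 24 h and sampled at 48 h. With Aroclor 1254-induced rat liver S9, cells were exposed for 3-4 h and sampled at 27-28 h. Read-outs are %MN and %hypodiploid nuclei relative to nucleated events, and relative survival as the nuclei-to-bead ratio versus the 1% DMSO vehicle control (x100).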

CHO-K1 [2] = experiment: relative survival (nuclei to bead ratio vs DMSO control) (% of vehicle control); higher = more surviving cells
Protocol: as §1

CHO-K1 [3] = experiment: micronucleus frequency (% of nucleated events); higher = more micronuclei (genotoxic)
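Throughout, for hypodiploid nuclei frequency (% of nucleated events): hypodiploid nuclei gated on a flow cytometer with 488 nm excitation after SYTOX Green staining, cultures at 37 °C, positive controls vinblastine without S9 and cyclophosphamide with S9.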
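Throughout, for micronucleus frequency (% of nucleated events): cells lysed with nuclei stained by SYTOX Green, then micronucleus-gated events counted against nucleated events by flow cytometry with 488 nm excitation.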
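Throughout, for relative survival (nuclei to bead ratio vs DMSO control): Lysed-cell nuclei stained with SYTOX Green and counted against counting beads by flow cytometry at 488 nm excitation, with vinblastine (no S9) and cyclophosphamide (plus S9) as positive controls.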

CC(C)(C)c1cc(O)ccc1O [tert-Butylhydroquinone]
Settings	hypodiploid nuclei frequency, CHO-K1 [1] [%]	micronucleus frequency, CHO-K1 [3] [%]	relative survival, CHO-K1 [2]
concentration: 4.5 (µM), S9 metabolic activation: with S9, exposure time: 3-4 hours	0.34	1.74	119
concentration: 4.5 (µM), S9 metabolic activation: without S9, exposure time: 24 hours	0.46	1.7	78.4
concentration: 5.63 (µM), S9 metabolic activation: with S9, exposure time: 3-4 hours	0.18	1.4	130
concentration: 5.63 (µM), S9 metabolic activation: without S9, exposure time: 24 hours	0.66	2.2	66
concentration: 7.04 (µM), S9 metabolic activation: with S9, exposure time: 3-4 hours	0.22	2.02	112
concentration: 7.04 (µM), S9 metabolic activation: without S9, exposure time: 24 hours	0.62	1.56	83.6
concentration: 8.8 (µM), S9 metabolic activation: with S9, exposure time: 3-4 hours	0.12	1.6	106
concentration: 8.8 (µM), S9 metabolic activation: without S9, exposure time: 24 hours	0.56	1.68	76.8
concentration: 11 (µM), S9 metabolic activation: with S9, exposure time: 3-4 hours	0.14	1.32	146
concentration: 11 (µM), S9 metabolic activation: without S9, exposure time: 24 hours	0.9	1.84	100
concentration: 13.7 (µM), S9 metabolic activation: with S9, exposure time: 3-4 hours	0.14	2.04	110
concentration: 13.7 (µM), S9 metabolic activation: without S9, exposure time: 24 hours	0.8	1.64	107
concentration: 17.2 (µM), S9 metabolic activation: with S9, exposure time: 3-4 hours	0.28	1.68	105
concentration: 17.2 (µM), S9 metabolic activation: without S9, exposure time: 24 hours	0.7	1.52	94.9
concentration: 21.5 (µM), S9 metabolic activation: with S9, exposure time: 3-4 hours	0.34	1.58	127
concentration: 21.5 (µM), S9 metabolic activation: without S9, exposure time: 24 hours	0.68	2.08	92.5
concentration: 26.8 (µM), S9 metabolic activation: with S9, exposure time: 3-4 hours	0.3	2.42	111
concentration: 26.8 (µM), S9 metabolic activation: without S9, exposure time: 24 hours	0.7	2.1	72.2
concentration: 33.6 (µM), S9 metabolic activation: with S9, exposure time: 3-4 hours	0.68	3.44	80.2
concentration: 33.6 (µM), S9 metabolic activation: without S9, exposure time: 24 hours	0.62	2.14	72.7
concentration: 41.9 (µM), S9 metabolic activation: with S9, exposure time: 3-4 hours	0.86	4.78	69.8
concentration: 41.9 (µM), S9 metabolic activation: without S9, exposure time: 24 hours	1.22	4.22	42.1
concentration: 52.4 (µM), S9 metabolic activation: with S9, exposure time: 3-4 hours	0.74	4.74	61.4
concentration: 52.4 (µM), S9 metabolic activation: without S9, exposure time: 24 hours	–	–	14.2
concentration: 65.5 (µM), S9 metabolic activation: with S9, exposure time: 3-4 hours	1.21	6.34	46.2
concentration: 65.5 (µM), S9 metabolic activation: without S9, exposure time: 24 hours	–	–	1.82
concentration: 81.9 (µM), S9 metabolic activation: with S9, exposure time: 3-4 hours	1.44	7.64	44.6
concentration: 102 (µM), S9 metabolic activation: with S9, exposure time: 3-4 hours	–	–	39.1
concentration: 128 (µM), S9 metabolic activation: with S9, exposure time: 3-4 hours	–	–	33.9
concentration: 160 (µM), S9 metabolic activation: with S9, exposure time: 3-4 hours	–	–	29
concentration: 200 (µM), S9 metabolic activation: with S9, exposure time: 3-4 hours	–	–	30.6

CC(=O)N1CCN(c2ccc(OCC3COC(Cn4ccnc4)(c4ccc(Cl)cc4Cl)O3)cc2)CC1 (stereo not given) [Ketoconazole]
Settings	hypodiploid nuclei frequency, CHO-K1 [1] [%]	micronucleus frequency, CHO-K1 [3] [%]	relative survival, CHO-K1 [2]
concentration: 4.5 (µM), S9 metabolic activation: with S9, exposure time: 3-4 hours	0.14	1.04	131
concentration: 4.5 (µM), S9 metabolic activation: without S9, exposure time: 24 hours	0.36	1.28	149
concentration: 5.63 (µM), S9 metabolic activation: with S9, exposure time: 3-4 hours	0.18	0.82	116
concentration: 5.63 (µM), S9 metabolic activation: without S9, exposure time: 24 hours	0.38	1.28	141
concentration: 7.04 (µM), S9 metabolic activation: with S9, exposure time: 3-4 hours	0.3	1.02	119
concentration: 7.04 (µM), S9 metabolic activation: without S9, exposure time: 24 hours	0.42	1.3	119
concentration: 8.8 (µM), S9 metabolic activation: with S9, exposure time: 3-4 hours	0.18	1	122
concentration: 8.8 (µM), S9 metabolic activation: without S9, exposure time: 24 hours	0.52	1.48	100
concentration: 11 (µM), S9 metabolic activation: with S9, exposure time: 3-4 hours	0.16	0.98	134
concentration: 11 (µM), S9 metabolic activation: without S9, exposure time: 24 hours	0.5	1.46	120
concentration: 13.7 (µM), S9 metabolic activation: with S9, exposure time: 3-4 hours	0.14	1.12	118
concentration: 13.7 (µM), S9 metabolic activation: without S9, exposure time: 24 hours	0.5	1.34	114
concentration: 17.2 (µM), S9 metabolic activation: with S9, exposure time: 3-4 hours	0.28	1.02	125
concentration: 17.2 (µM), S9 metabolic activation: without S9, exposure time: 24 hours	0.56	1.5	106
concentration: 21.5 (µM), S9 metabolic activation: with S9, exposure time: 3-4 hours	0.14	1.18	129
concentration: 21.5 (µM), S9 metabolic activation: without S9, exposure time: 24 hours	0.48	1.74	93.2
concentration: 26.8 (µM), S9 metabolic activation: with S9, exposure time: 3-4 hours	0.14	0.84	122
concentration: 26.8 (µM), S9 metabolic activation: without S9, exposure time: 24 hours	0.48	1.52	71.9
concentration: 33.6 (µM), S9 metabolic activation: with S9, exposure time: 3-4 hours	0.24	1.16	139
concentration: 33.6 (µM), S9 metabolic activation: without S9, exposure time: 24 hours	0.68	1.32	62.5
concentration: 41.9 (µM), S9 metabolic activation: with S9, exposure time: 3-4 hours	0.2	1.04	127
concentration: 41.9 (µM), S9 metabolic activation: without S9, exposure time: 24 hours	0.58	0.86	63.3
concentration: 52.4 (µM), S9 metabolic activation: with S9, exposure time: 3-4 hours	0.14	1.04	115
concentration: 52.4 (µM), S9 metabolic activation: without S9, exposure time: 24 hours	0.72	1.26	64.7
concentration: 65.5 (µM), S9 metabolic activation: with S9, exposure time: 3-4 hours	0.28	1.6	103
concentration: 65.5 (µM), S9 metabolic activation: without S9, exposure time: 24 hours	0.68	1.68	62.9
concentration: 81.9 (µM), S9 metabolic activation: with S9, exposure time: 3-4 hours	0.26	2.76	90.9
concentration: 81.9 (µM), S9 metabolic activation: without S9, exposure time: 24 hours	0.36	1.12	51.7
concentration: 102 (µM), S9 metabolic activation: with S9, exposure time: 3-4 hours	–	–	2.14
concentration: 102 (µM), S9 metabolic activation: without S9, exposure time: 24 hours	0.5	1.88	41.1
concentration: 128 (µM), S9 metabolic activation: with S9, exposure time: 3-4 hours	–	–	0.67
concentration: 128 (µM), S9 metabolic activation: without S9, exposure time: 24 hours	–	–	32
concentration: 160 (µM), S9 metabolic activation: with S9, exposure time: 3-4 hours	–	–	0.47
concentration: 160 (µM), S9 metabolic activation: without S9, exposure time: 24 hours	–	–	2.31
concentration: 200 (µM), S9 metabolic activation: with S9, exposure time: 3-4 hours	–	–	0.38
concentration: 200 (µM), S9 metabolic activation: without S9, exposure time: 24 hours	–	–	0.95
